Reference: PubChem BioAssay AID1346428 (National Center for Advancing Translational Sciences (NCATS), 2018)
Hit rate of the full screen: of about 48,000 compounds, about 1,200 (2.5%) were called active. Not shown: some 2% with an inconclusive outcome.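 How the source made its calls: active means activation of at least 60% and not above a set upper limit (about 1 call in 100 departs from these limits); inconclusive means activation of 40% to 60%, or above that upper limit; inactive means activation under 40%.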 This is one part of the list.
Further: 0% is about no effect.

These compounds were tested against Probable G-protein coupled receptor 32 (Homo sapiens) (UniProt O75388) (assay: qHTS for Agonists of Human Resolvin D1 Receptor DRV1). Settings: CHO-K1 GPR32 beta-arrestin PathHunter luminescence, 90 min; at 76.9 µM; stronger effect = higher value; zero percent set by DMSO-only wells.
Chain of UniProt O75388 (O75388 whole entry, looked up): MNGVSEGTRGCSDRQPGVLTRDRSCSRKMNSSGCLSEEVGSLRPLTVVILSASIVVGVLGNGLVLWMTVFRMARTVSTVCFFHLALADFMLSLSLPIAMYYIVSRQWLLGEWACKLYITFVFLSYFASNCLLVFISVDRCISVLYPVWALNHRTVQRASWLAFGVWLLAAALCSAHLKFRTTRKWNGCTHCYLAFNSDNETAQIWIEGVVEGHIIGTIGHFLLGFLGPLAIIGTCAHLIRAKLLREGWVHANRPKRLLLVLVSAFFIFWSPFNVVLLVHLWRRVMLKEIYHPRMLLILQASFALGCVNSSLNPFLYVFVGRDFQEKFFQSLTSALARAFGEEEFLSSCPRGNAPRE
Procedure, shortened: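 Engineered CHO-K1 line co-expressing GPR32-ProLink and EA-beta-arrestin. Compound treatment lasted 90 min at 37 °C. Luminescence was recorded after 1 h with substrate at ambient temperature, relative to DMSO basal wells.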
With `Cc1ccc(C2=CC(c3ccc(Cl)cc3)n3nc(-c4ccc(C)cc4)nc3N2)cc1` (configuration not stated) the activation was inactive: -16.4%.
`COc1ccc(NC(=O)CCc2nc3cccnc3n2-c2ccccc2)cc1Cl` was tested, and the activation was inactive: 10.1%.
For `O=c1c2c3c(sc2n(Cc2ccccc2F)c(=O)n1-c1ccc(Cl)cc1)CCCC3`, the activation was inactive: 8.04%.
`COC(=O)c1ccc(Cl)cc1NC(=O)NC(C)c1c(-n2cccc2)sc(C)c1C` (configuration not stated) was tested, and the activation was inactive: -25.6%.
With `O=C(O)C1(C(=O)O)CCC1.[NH2-].[NH2-].[Pt+2]` the activation was inactive: 43.1%.
With `Cc1ccc2nc(NC(=O)c3ccc(S(=O)(=O)N4CCCc5ccccc54)cc3)sc2c1` the activation was inactive: -17.2%.
For `COCCCn1c(=O)c2sccc2n2c(CCCC(=O)Nc3ccc(F)c(F)c3)nnc12`, the activation was inactive: -6.22%.
For `COc1ccc(OC)c(NC(=O)c2c(NCc3ccc(OC)c(OC)c3)sc3c2CCC(C)C3)c1` (configuration not stated), the activation was inactive: -11.6%.
For `O=C(C1CCCCC1)N(Cc1cccnc1)c1nc2c(F)cc(F)cc2s1`, the activation was inactive: -29.5%.
In the case of `CCN1CCOC(=O)C1CC(=O)Nc1ccc(C)c(Cl)c1` (configuration not stated), the activation was inactive: 39.7%.
For `COc1ccc(CNC(=O)CCC2N=C3c4ccccc4N=C(SCc4ccc(F)cc4)N3C2=O)cc1` (configuration not stated), the activation was inactive: -3.93%.
`Cc1ccccc1-c1nc2scc(CCNC(=O)C(=O)Nc3ccc(F)cc3F)n2n1` was tested, and the activation was inactive: 42.1%.
In the case of `Cc1cc(C)nc(NS(=O)(=O)c2ccc(NC(=O)c3cc(=O)c4ccc(C)c(C)c4o3)cc2)n1`, the activation was inactive: 22.6%.
`CN1CCN(C2(CNC(=O)c3ccc([N+](=O)[O-])cc3)CCCCC2)CC1` was tested, and the activation was inactive: -8.31%.
In the case of `O=C(CSc1nc2c([nH]c3ccccc32)c(=O)n1-c1ccccc1)c1ccc(Cl)cc1`, the activation was inactive: -8.94%.
For `COc1cc(NS(=O)(=O)c2ccc3[nH]c4c(c3c2)CCCC4)cc(OC)c1OC`, the activation was active: 82.2%.
For `Nc1c(C(=O)NCCc2ccccc2)nnn1CC(=O)Nc1ccc(Cl)cc1`, the activation was inactive: -5.06%.
In the case of `Cc1ccc(Nc2c(-c3ccc(N4CCOCC4)cc3)nc3c(C)cccn23)cc1`, the activation was inactive: -28.2%.
`COc1ccc(CC(=O)Nc2ccc3nc(Nc4cccc(Cl)c4)cc(C)c3c2)cc1` was tested, and the activation was inactive: -18.8%.
With `CCOC(=O)C1CCCN(c2c(C(=O)c3ccc(C)cc3)cnc3ccc(OCC)cc23)C1` (configuration not stated) the activation was inactive: -60.6%.
With `CCOC(=O)c1ccc(NC(=O)CCCc2nc(-c3cc(OC)c(OC)c(OC)c3)no2)cc1` the activation was inactive: -12.6%.
For `CCCNC(=O)C1CCC(Cn2c(=O)c3sccc3n(CC(=O)NCc3ccccc3)c2=O)CC1` (configuration not stated), the activation was inactive: -6.11%.
`O=C(CN1C=NS(=O)(=O)c2ccccc21)Nc1ccccc1F` was tested, and the activation was inactive: 3.99%.
In the case of `O=C(NCc1ccccc1F)C1CCCN(C(=O)N2CCOc3ccccc32)C1` (configuration not stated), the activation was inactive: -14.7%.
For `Cc1nn(CCCC(=O)NCc2ccccc2Br)c(=O)c2c1sc1ccccc12`, the activation was inactive: -8.37%.
In the case of `CCOc1ccc(S(=O)(=O)N(CC(=O)Nc2ccc(OC)cc2OC)c2ccccc2)cc1`, the activation was inactive: -6.21%.
With `COc1ccc(S(=O)(=O)N(CC(=O)N2CCc3ccccc3C2)c2ccc(C)cc2)cc1` the activation was inactive: -1.16%.
With `Cc1cccc2nc(Cn3c(=O)n(-c4ccc(Cl)cc4)c(=O)c4c5c(sc43)CCC5)cc(=O)n12` the activation was inactive: -3.07%.
With `CCOc1ccc(C(=O)Nc2cccc(C(=O)OCc3cc(=O)n4cc(C)sc4n3)c2)cc1` the activation was inactive: -12.4%.
For `COc1ccc(-c2nc3ccccc3o2)cc1NC(=O)COc1ccc(C)c(C)c1`, the activation was inactive: 3.33%.
In the case of `COc1ccc(OC)c(CNS(=O)(=O)c2ccc3c(c2)oc(=O)n3C)c1`, the activation was inactive: 3.04%.
For `COc1ccc(Br)cc1CNC(=O)c1cc(=O)[nH]c2ccc(S(=O)(=O)N3CCCCC3C)cc12` (configuration not stated), the activation was inactive: -35.2%.
In the case of `CCn1cc(C(=O)NCCc2ccccc2)c(=O)c2cc(S(=O)(=O)N3CCCCCC3)ccc21`, the activation was inactive: -14.7%.
`Cc1nn(C(C)C(=O)N2CCN(c3ccc(F)cc3)CC2)c(=O)c2c1sc1ccccc12` (configuration not stated) was tested, and the activation was inactive: -17.7%.
For `COc1ccc(N2C(=O)CS(=O)(=O)C23C(=O)N(Cc2ccccc2F)c2ccccc23)cc1Cl` (configuration not stated), the activation was inactive: -30.3%.
For `CC(=O)N1c2ccc(S(=O)(=O)N3CCC(C(=O)Nc4cccc(Cl)c4C)CC3)cc2CC1C` (configuration not stated), the activation was inactive: 10.5%.
With `CC1=C(C/C=C(\C)CCC[C@H](C)CCC[C@H](C)CCCC(C)C)C(=O)c2ccccc2C1=O` the activation was inactive: 6.17%.
With `Cc1cccc(C)c1NC(=O)C1CCCN1S(=O)(=O)c1ccccc1` (configuration not stated) the activation was inactive: -5.58%.
For `Cc1cccc(Cn2cc(S(=O)(=O)c3ccccc3)c(=O)c3cc(F)c(N4CCOCC4)cc32)c1`, the activation was inactive: -15.4%.
In the case of `CCOC(=O)Cn1c(=O)n(-c2cccc(Cl)c2)c2nc(-c3ccccc3Cl)nc(C(N)=O)c21`, the activation was inactive: -0.551%.
For `Cc1ccc2c(CC(=O)Nc3ccc(S(=O)(=O)N4CCCCC4C)cc3)coc2c1C` (configuration not stated), the activation was inactive: -16.5%.
`O=C(OCCOCCO)c1ccccc1Nc1cccc(C(F)(F)F)c1` was tested, and the activation was inactive: 41.2%.
`CCc1ccc2ncc3c(-c4ccc(F)cc4)nn(CC(=O)NC4CCCCC4)c3c2c1` was tested, and the activation was inactive: 8.41%.
In the case of `Cc1ccccc1OC(=O)c1nc(SCc2ccccc2F)ncc1Cl`, the activation was inactive: 5.53%.
`COc1ccc(N2CCN(CCCNC(=O)c3nnc(Cc4ccc(F)cc4)o3)CC2)cc1` was tested, and the activation was inactive: -12.9%.
With `CN(C)c1ccc(CNC(=O)Cc2ccc(NC(=O)N3CCCCc4ccccc43)cc2)cc1` the activation was inactive: -0.569%.
`Cc1ccc(CSc2nnc([C@@H](N)C(C)C)o2)cc1` was tested, and the activation was inactive: 11.6%.
`CCC(Oc1ccccc1)C(=O)Nc1cccc(OCc2cc(=O)n3cccc(C)c3n2)c1` (configuration not stated) was tested, and the activation was inactive: -21.7%.
With `Cc1c(C)c2c(cc(C)c3c(-c4ccc(Br)cc4)coc32)oc1=O` the activation was inactive: -2.18%.
With `CCOC(=O)c1cccc(NC(=O)CCn2c(=O)oc3ccccc32)c1` the activation was inactive: 20.1%.
With `CC(=O)c1ccc(NC(=O)Cn2c(=O)cc(C)c3c(C)nn(-c4cccc(F)c4)c32)cc1` the activation was inactive: -20%.
`COc1cccc(NC(=O)CSc2nc(C)c(Cc3ccccc3)c(=O)[nH]2)c1` was tested, and the activation was inactive: 10.1%.
